Assay results from FireProtDB.
Several values for one entry are separate records, joined by “and”; a condition that tells them apart may be missing. Equal values may be shown once.

Details: Sus scrofa, reversible: yes, whole UniProt chain shown
[1] = pH 7.5, 25 °C, Urea, CD, Sodium phosphate 0.1 M, sodium hydroxide
[2] = pH 8, Thermal, Absorbance, MOPS 20 mM

B1: Pepsin A wild type, P00791 (protein)
chain: MKWLLLLSLVVLSECLVKVPLVRKKSLRQNLIKNGKLKDFLKTHKHNPASKYFPEAAALIGDEPLENYLDTEYFGTIGIGTPAQDFTVIFDTGSSNLWVPSVYCSSLACSDHNQFNPDDSSTFEATSQELSITYGTGSMTGILGYDTVQVGGISDTNQIFGLSETEPGSFLYYAPFDGILGLAYPSISASGATPVFDNLWDQGLVSQDLFSVYLSSNDDSGSVVLLGGIDSSYYTGSLNWVPVSVEGYWQITLDSITMDGETIACSGGCQAIVDTGTSLLTGPTSAIANIQSDIGASENSDGEMVISCSSIDSLPDIVFTINGVQYPLSPSAYILQDDDSCTSGFEGMDVPTSSGELWILGDVFIRQYYTVFDRANNKVGLAPVA
- denaturant m value [1]: 1.17 kcal/mol/M
- denaturant midpoint (higher = more stable) [1]: 3.9 M
- unfolding free energy [1]: 4.16 kcal/mol
- Tm [2]: 52.6 °C and 53.6 °C
- unfolding enthalpy (van 't Hoff) [2]: 49 kcal/mol and 46.6 kcal/mol
